According to the supplement of paper PMC10126150:
Sequences with one replicate were seen in a single cluster, so their values are uncertain.

System: ATP
Assay: switch fluorescence ratio, 500 uM ATP over buffer (Cy3 cluster intensity, sum of 5 cycles each) (fold (ratio)); higher = stronger signal-on switching upon ATP binding; sequences stand for … in TCGTCGGCAGCGTCAGATGTGTATAAGAGACAGTTTTTTTTTTTTTTTTTTTTTTTTT…TC
Conditions: aptamer strand: ATP DNA aptamer (quencher-CACCTGGGGGAGTATTGCGGAGGAAGG + anchor), 100 nM annealed; ATP concentration: 500 uM; one replicate
Procedure, shortened: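 The quencher-labelled ATP aptamer, at 100 nM, was annealed to Cy3-labelled switching-strand clusters on a modified Illumina MiSeq flow-cell. The clusters were imaged in selection buffer, then after 15 min with 500 uM ATP at 22 °C, and this buffer/ATP cycle ran five times with NaOH stripping and re-annealing between runs. Per-cluster fluorescence ratios, summed target-cycle over summed buffer-cycle Cy3 intensity, were averaged per switch-domain sequence. Clusters outside 100-1000 RFU were excluded.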
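Further: ATP exposure 15 min at 22 °C before imaging.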

| Sequence | switch fluorescence ratio |
| --- | --- |
| CGATTTCGTG | 0.979 |
| TTGTGGAATA | 0.999 |
| ACTAGGCATA | 1.14 |
| AGTTATAAT | 1.04 |
| AGGACTTGGC | 1.06 |
| GACGGAGATA | 1.09 |
| AGTAAGGGCC | 1.04 |
| TCAAAAAGGG | 1.05 |
| ACTAATTACT | 1.14 |
| TGTATGTCGC | 1.05 |
| CTACCATCCA | 1.08 |
| GTCAGGGGCA | 1.01 |
| AAGAGTAAAG | 0.96 |
| GGCGGCTTAA | 0.962 |
| AGCTTGGGGA | 1.06 |
| GGTCTGACAG | 0.971 |
| ACCGGGCGGG | 0.996 |
| ACAGATCTTG | 0.993 |
| ATTCCCGGAA | 1.06 |
| ATATT | 1.01 |
| ATTTCTCTTT | 1.01 |
| AACAGTTCCA | 1 |
| AGCACAAGGA | 1 |

| Sequence | switch fluorescence ratio |
| --- | --- |
| CATCCATGCA | 1.33 |
| TCGTGACGGG | 1.04 |
| TCTTGACGGG | 1.04 |
| ACTAAAACTT | 1.09 |
| GCCGCATTTA | 1.48 |
| ACCGAATGGG | 0.939 |
| AAATCGGCT | 0.991 |
| TAACGAAGAG | 1.08 |
| TTGCTTTAT | 1 |
| GACTGTGC | 0.938 |
| ACGCCTTGGA | 0.998 |
| GAAATTATGC | 0.924 |
| ATCATGGACA | 1.07 |
| ACGCAATCAG | 6.03 |
| GTCGTTGGCT | 1.01 |
| AATCAACGTT | 1.07 |
| CAGAAGAATA | 0.982 |
| TGGTGCAAGG | 1.01 |
| TACATGACGG | 1.1 |
| ATAGTTGGAA | 1.03 |
| AGAACATACC | 1.36 |
| TCTCTCAGAG | 0.996 |
| TCTAGTGGGT | 0.994 |

| Sequence | switch fluorescence ratio |
| --- | --- |
| TCAGGTGCGA | 1.66 |
| TGCCGCCTAC | 1.45 |
| CACCTCTTCG | 1.07 |
| CACATGTAGG | 1.08 |
| TTTTCGCCTC | 0.988 |
| CTTGTACG | 0.985 |
| ATGCCTTCGA | 0.998 |
| GCTTAACGCA | 0.993 |
| CACTCTTATT | 0.992 |
| GATTTCGAGC | 1.02 |
| AATTTACCAA | 1.05 |
| CGCAGCTCGC | 1.84 |
| GCTATGGGGC | 1.02 |
| TCTCGTGGCG | 1.07 |
| CGTTAGCGGA | 0.981 |
| AGGCAGTGAC | 0.981 |
| AGGCGCTTG | 1.06 |
| ATGAGCAGG | 1.18 |
| TGTTCGTGTA | 0.986 |
| CTTTAGGCCA | 1.02 |
| AGGGGGACCT | 1.01 |
| ATATCCGCGG | 1.07 |
| CATTAAATGA | 1.04 |

| Sequence | switch fluorescence ratio |
| --- | --- |
| GGCTTGCCTA | 1.01 |
| GTAAGACAGG | 0.993 |
| GCTTTCGTGG | 1.01 |
| AAATCATAAC | 1.01 |
| GTGGCGGGTC | 0.967 |
| ATTTGGGCAG | 1.01 |
| GGATTATTGT | 0.959 |
| TGCGGTTAAA | 0.997 |
| CCCAGTATCG | 0.975 |
| TATCGGAGC | 0.959 |
| AGTTGGATTT | 0.932 |
| TGGTCTCCGT | 1.02 |
| CGTGGCGCTA | 1 |
| AAGGGCTTG | 1.03 |
| TGATGTTGGA | 1.01 |
| TTAGGTGCGC | 1.01 |
| GCAAACTCCC | 2.66 |
| ATTGAGGGAT | 0.952 |
| GTTATTAGG | 0.996 |
| TAATTGAGGT | 0.977 |
| TCGGCGTATA | 1.02 |
| GCGAACGGCG | 0.953 |
| TCTAACTGGT | 0.978 |

| Sequence | switch fluorescence ratio |
| --- | --- |
| TAGCTCAAAC | 0.993 |
| TATCTGTTCC | 1.07 |
| AGCAATAAAA | 1.05 |
| TTCCCTTTT | 0.966 |
| GCAATAAGCG | 1.12 |
| TTTCGCAGAG | 4.19 |
| CGGTTTAATG | 0.939 |
| CCTGACACGA | 1.21 |
| TGACCACCCT | 1.17 |
| GGAACAATTG | 0.956 |
| GAGGTTTAAA | 0.985 |
| CCTAGTTAGG | 0.987 |
| TGTAGTTGGG | 1.04 |
| AAACTGATTA | 0.974 |
| AGAGTTCAGC | 0.956 |
| TCGCGTGC | 1.22 |
| AGGGGGT | 1.09 |
| AACTAGTCAT | 0.98 |
| ACCTAGTATC | 1.1 |
| TATCAAATAC | 1.22 |
| TGACTTCAAT | 1.01 |
| TGTAGTGTAG | 1.03 |
| CGTGAAGGCA | 0.933 |

| Sequence | switch fluorescence ratio |
| --- | --- |
| TTTGTTAACC | 1.01 |
| CGGGTAATTA | 0.999 |
| AAACGGGGGA | 1.03 |
| CTGAGCAAA | 1.97 |
| CGAGCCAGAA | 0.995 |
| GACACACT | 1.59 |
| TTCTGGCTCT | 1.01 |
| GGGTCCGTTA | 1 |
| TCTTGTGTGG | 1.02 |
| TGGTAAAAAT | 0.948 |
| GAATCTACGG | 1.07 |
| GATTGTCTAT | 1.01 |
| TGGTAGTCC | 1.04 |
| TGTGTGACAT | 0.995 |
| ATAGTTGTCC | 0.966 |
| GGTCGAACCA | 1.03 |
| AGTTTACGTT | 0.986 |
| TCACCTGGCA | 1.02 |
| TGGACCTTCG | 1.19 |
| ATGCTCGGAT | 1.16 |
| GTGGTGTGAC | 1.01 |
| TAATTGGCCA | 0.966 |
| CGCGGCACGG | 0.997 |

| Sequence | switch fluorescence ratio |
| --- | --- |
| CGACATTGGG | 1.11 |
| CTAAAAGTTA | 1.03 |
| CTTCAACCCG | 1.07 |
| AAGACATAGG | 1.01 |
| TCAATACCTA | 1.04 |
| CCATGTATCA | 0.954 |
| CATAAACCTG | 1.13 |
| TTATGATTAC | 1.02 |
| CCGCGTTTTA | 1.17 |
| TAGACGCTC | 1.05 |
| TCTAGGCACA | 1.12 |
| TCTTACATCA | 1.09 |
| AAGCTACAAG | 1.1 |
| CTGAGAGGAT | 0.983 |
| TGATTTGCCT | 1.01 |
| TACTTTGTGC | 1.02 |
| CGGGGTTCTG | 1.02 |
| GCACATCCGC | 1.66 |
| CAAAGCAGTA | 1.1 |
| GAAACAGGGG | 1.07 |
